Measurements as given in the supplement of paper PMC10369915.
This is one part of the list. Cut-off read from the data, not from the text of the source: active = 3.2 or more and inactive = the rest. Only a few entries rise above the background.

Legend:
Assay in all cases: enrichment score (SH2-bound / input frequency) (ratio); bacterial display of known human phosphotyrosine sites (pTyr-Var adds point mutants) read by sequencing; higher = stronger binding; tyrosines were phosphorylated by kinases first
Conditions in all cases: peptide library: pTyr-Var
[1] = molecular target: SHP2 C-SH2 domain E139D
[2] = molecular target: SHP2 C-SH2 domain wild-type
[3] = molecular target: SHP2 N-SH2 domain L43F
[4] = molecular target: SHP2 N-SH2 domain T42A
[5] = molecular target: SHP2 N-SH2 domain T52S
[6] = molecular target: SHP2 N-SH2 domain wild-type
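Note: displayed peptides selected on beads carrying the immobilized SH2 domain, with library peptides lacking any tyrosine serving as negative controls.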

B1: SIPA1L3_Y1265_G1261R (peptide)
chain: KREPQYSSHSS
enrichment score [1]: inactive: 0.594
enrichment score [2]: inactive: 0.673
enrichment score [3]: inactive: 0.717
enrichment score [4]: inactive: 0.447
enrichment score [5]: inactive: 0.543
enrichment score [6]: inactive: 0.628

B2: SIPA1L3_Y1376_G1371S_YF (peptide)
chain: SQSKGYRPKLF
enrichment score [1]: inactive: 0.308
enrichment score [2]: inactive: 0.321
enrichment score [3]: inactive: 0.332
enrichment score [4]: inactive: 0.329
enrichment score [5]: inactive: 0.342
enrichment score [6]: inactive: 0.457

B3: SIPA1L3_Y1376_YF (peptide)
chain: GQSKGYRPKLF
enrichment score [1]: inactive: 0.605
enrichment score [2]: inactive: 0.642
enrichment score [3]: inactive: 0.498
enrichment score [4]: inactive: 0.533
enrichment score [5]: inactive: 0.459
enrichment score [6]: inactive: 0.668

B4: SIX3_Y225_YF (peptide)
chain: LLREWYLQDPF
enrichment score [1]: inactive: 1.74
enrichment score [2]: inactive: 2.31
enrichment score [3]: inactive: 2.49
enrichment score [4]: inactive: 2.27
enrichment score [5]: inactive: 2.56
enrichment score [6]: inactive: 1.75

B5: SIX6OS1_Y129_Y125C (peptide)
chain: QCQLKYSETPF
enrichment score [1]: inactive: 0.868
enrichment score [2]: inactive: 0.843
enrichment score [3]: inactive: 0.75
enrichment score [4]: inactive: 0.614
enrichment score [5]: inactive: 0.808
enrichment score [6]: inactive: 0.849

B6: SKAP2_Y197 (peptide)
chain: PDKRIYQFTAA
enrichment score [1]: inactive: 0.63
enrichment score [2]: inactive: 0.732
enrichment score [3]: inactive: 0.653
enrichment score [4]: inactive: 0.621
enrichment score [5]: inactive: 0.841
enrichment score [6]: inactive: 0.706

B7: SKAP2_Y197_A202S (peptide)
chain: PDKRIYQFTAS
enrichment score [1]: inactive: 0.858
enrichment score [2]: inactive: 0.693
enrichment score [3]: inactive: 0.737
enrichment score [4]: inactive: 0.627
enrichment score [5]: inactive: 0.665
enrichment score [6]: inactive: 0.727

B8: SLAMF7_Y304 (peptide)
chain: PANTVYSTVEI
enrichment score [1]: inactive: 1.47
enrichment score [2]: inactive: 2.47
enrichment score [3]: inactive: 1.67
enrichment score [4]: active: 3.4
enrichment score [5]: inactive: 1.58
enrichment score [6]: inactive: 1.08

B9: SLAMF7_Y304_T302M (peptide)
chain: PANMVYSTVEI
enrichment score [1]: inactive: 0.952
enrichment score [2]: inactive: 1.04
enrichment score [3]: inactive: 1.16
enrichment score [4]: inactive: 1.8
enrichment score [5]: inactive: 1.57
enrichment score [6]: inactive: 0.927

B10: SLC12A3_Y70 (peptide)
chain: PTYEHYANSTQ
enrichment score [1]: inactive: 0.662
enrichment score [2]: inactive: 0.662
enrichment score [3]: inactive: 0.7
enrichment score [4]: inactive: 0.68
enrichment score [5]: inactive: 0.5
enrichment score [6]: inactive: 0.717

B11: SLC12A3_Y70_H69N (peptide)
chain: PTYENYANSTQ
enrichment score [1]: inactive: 2.35
enrichment score [2]: inactive: 1.82
enrichment score [3]: inactive: 1.99
enrichment score [4]: inactive: 2.62
enrichment score [5]: inactive: 1.66
enrichment score [6]: inactive: 2.1

B12: SLC12A3_Y70_YF (peptide)
chain: PTFEHYANSTQ
enrichment score [1]: inactive: 0.757
enrichment score [2]: inactive: 0.892
enrichment score [3]: inactive: 1.09
enrichment score [4]: inactive: 0.76
enrichment score [5]: inactive: 0.889
enrichment score [6]: inactive: 1.08

B13: SLC15A2_Y60_R57H_YF (peptide)
chain: CEHFSYFGMKA
enrichment score [1]: inactive: 1.39
enrichment score [2]: inactive: 1.38
enrichment score [3]: inactive: 1.21
enrichment score [4]: inactive: 1.04
enrichment score [5]: inactive: 1.28
enrichment score [6]: inactive: 1.35

B14: SLC15A2_Y60_YF (peptide)
chain: CERFSYFGMKA
enrichment score [1]: inactive: 1.43
enrichment score [2]: inactive: 1.15
enrichment score [3]: inactive: 0.941
enrichment score [4]: inactive: 1.27
enrichment score [5]: inactive: 1.21
enrichment score [6]: inactive: 1.19

B15: SLC15A2_Y61_R57H (peptide)
chain: EHFSYYGMKAV
enrichment score [1]: inactive: 1.06
enrichment score [2]: inactive: 0.944
enrichment score [3]: inactive: 0.801
enrichment score [4]: inactive: 0.745
enrichment score [5]: inactive: 1.03
enrichment score [6]: inactive: 0.86

B16: SLC16A6_Y224 (peptide)
chain: RKEAQYMLENE
enrichment score [1]: inactive: 0.527
enrichment score [2]: inactive: 0.402
enrichment score [3]: inactive: 0.816
enrichment score [4]: inactive: 0.314
enrichment score [5]: inactive: 0.482
enrichment score [6]: inactive: 0.584

B17: SLC18A1_Y251_V249I (peptide)
chain: FGSIMYEFVGK
enrichment score [1]: inactive: 1.29
enrichment score [2]: inactive: 1.02
enrichment score [3]: inactive: 1.09
enrichment score [4]: inactive: 1.28
enrichment score [5]: inactive: 1.2
enrichment score [6]: inactive: 1.17

B18: SLC1A1_Y51 (peptide)
chain: TLEKFYFAFPG
enrichment score [1]: inactive: 1.51
enrichment score [2]: inactive: 1.29
enrichment score [3]: inactive: 1.35
enrichment score [4]: inactive: 1.3
enrichment score [5]: inactive: 1.48
enrichment score [6]: inactive: 1.62

B19: SLC1A1_Y51_F50Y (peptide)
chain: TLEKYYFAFPG
enrichment score [1]: inactive: 1.65
enrichment score [2]: inactive: 1.49
enrichment score [3]: inactive: 1.68
enrichment score [4]: inactive: 1.36
enrichment score [5]: inactive: 1.19
enrichment score [6]: inactive: 1.27
